Some of the results follow. The source does not settle which construct or isoform was used.
The sequences below were run against GST-SBP-ILF3 (Homo sapiens) (UniProt Q12906) (assay: targeted RNA Bind-n-Seq). Conditions: RBNS binding buffer: 25 mM Tris pH 7.5, 150 mM KCl, 3 mM MgCl2, 0.1% Tween, 0.5 mg/mL BSA, 1 mM DTT; 27 nM protein, 750 pM RNA pool; temperature not stated; high values mean tight binding; sequences stand for … in GGGUAAAAGCGAGGUGAA…CGGGACAAGUAUUAUGGG.

Sequence | binding signal (log2 fold change)
UUUUUUUUUUGAGACCGAAGCGGUCUUCUG [tttttgagapaired] | 0.82
UUUUUUUUUUGAGAUGGUGUCUAUCUCCGG [tttttgagapaired] | 0.644
UUUUUUUUUUGAGAACGGGCCGUUCUCCUA [tttttgagapaired] | 0.279
UUCCUCCUUCCUCCGCUGGAGGGAGGGGGA [ctspaired] | -0.243
UUUUUUUUUUGAGAUGGGAGCCAUUUCCAG [tttttgagapaired] | 0.506
UUUUUUUUUUGAGACCGACACGGUCUUCUA [tttttgagapaired] | 0.433
GUGUGUGGUGUUGGACUCUAACACCGCGCG [gtspaired] | -0.542
UUUUUUUUUUGAGACGGAGACCGUUUCCUA [tttttgagapaired] | 0.652
UUUUUUUUUUGAGAACGGGUCGUUCUCCGG [tttttgagapaired] | 0.424
GUGUGUUGUGUUGGACCCUAACACAACGCA [gtspaired] | -0.508
UUUUUUUUUUGAGACGGGGGCUGUCUCCAG [tttttgagapaired] | 1.03
GUGGUUGGUGUUGGCCCCUAACACCAGCCG [gtspaired] | -0.256
UUUUUUUUUUGAGAGCGACACGCUCUCCUA [tttttgagapaired] | -0.148
UUUUUUUUUUGAGACUGUUGCAGUCUCCUG [tttttgagapaired] | 0.542
GGUUGGUGUGUUGGUCUCUAACACAUCGAC [gtspaired] | -0.692
UUUUUUUUUUGAGAGCGUAUCGCUCUUCUA [tttttgagapaired] | 0.213
GGUGGUUGUGUUGGCCUCUAACACAACUAC [gtspaired] | -0.619
UUUUUUUUUUGAGACGGUUUCUGUCUCCAG [tttttgagapaired] | 0.419
GUGUUGUGUGUUGGUUCCUAACACACAGCA [gtspaired] | -0.324
GGUUGUGGUGUUGGCUCCUAACACCGCAGC [gtspaired] | -0.653
UUUUUUUUUUGAGAGUGGGGCAUUCUUCUA [tttttgagapaired] | 0.479
GUGGUGUGUGUUGGAACCUAACACAUACCA [gtspaired] | -0.291
UUUUUUUUUUGAGAUGGAGUCCAUCUCCUA [tttttgagapaired] | 0.0655
GUGGUUGGUGUUGGAUUCUAACACCGACCG [gtspaired] | -0.586
UUUUUUUUUUGAGAGGGAAUCCCUCUUCUA [tttttgagapaired] | -0.25
GGUGGUUGUGUUGGUACCUAACACAGCUAC [gtspaired] | -0.462

Sequence | binding signal (log2 fold change)
UUUUUUUUUUGAGAACGGAUCGUUCUCCGG [tttttgagapaired] | 0.216
GUUGUGUGUGUUGGUACCUAACACACGCGA [gtspaired] | -0.58
UUUUUUUUUUGAGAGUGGGUCAUUCUCCUA [tttttgagapaired] | 0.316
UUUUUUUUUUGAGAUCGGAGCGAUCUCCAG [tttttgagapaired] | 0.458
UUUUUUUUUUGAGAGUGUAACACUCUCCGG [tttttgagapaired] | -0.0193
UUUUUUUUUUGAGAGGGAUCCCUUCUCCAG [tttttgagapaired] | 0.0953
GGUUGUGGUGUUGGUAUCUAACACCGCAGC [gtspaired] | -0.296
UUUUUUUUUUGAGAGCGGUACGUUCUUCUA [tttttgagapaired] | 0.376
UUUUUUUUUUGAGAUGGGAACCAUCUUCUG [tttttgagapaired] | 0.274
GGUGGUGGUGUUGGUUCCUAACACCAUCGC [gtspaired] | -0.425
UUUUUUUUUUGAGAGCGGUCCGUUCUCCUA [tttttgagapaired] | 0.597
UUUUUUUUUUGAGACGGAGUCCGUUUCCAG [tttttgagapaired] | 0.538
GUGGUGUGUGUUGGUCCCUAACACAUACCG [gtspaired] | -0.672
UUUUUUUUUUGAGACUGGAUCAGUUUCCUG [tttttgagapaired] | 0.698
GUUGGUGGUGUUGGUAUCUAACACCGCCAG [gtspaired] | -0.279
GUGGUGUGUGUUGGUACCUAACACACAUCG [gtspaired] | -0.322
GGUGGUUGUGUUGGUCUCUAACACAAUCGC [gtspaired] | -0.645
UUUUUUUUUUGAGAGCGUGACGCUCUCCUG [tttttgagapaired] | 0.158
UUUUUUUUUUGAGACCGAAGCGGUCUCCAG [tttttgagapaired] | 0.53
UUUUUUUUUUGAGAGCGGGACGUUCUCCAG [tttttgagapaired] | 0.454
UUUUUUUUUUGAGAGCGAAACGUUCUCCUA [tttttgagapaired] | -0.017
GGUGUUGGUGUUGGCGUCUAACACCAGCGC [gtspaired] | -0.341
GUGGUGUGUGUUGGAGCCUAACACAUACUA [gtspaired] | -0.606
UUUUUUUUUUGAGACUGGGCCAGUCUCCUG [tttttgagapaired] | 0.564
UUUUUUUUUUGAGAGGGCCCCCCUCUCCUG [tttttgagapaired] | 0.818
GGUGGUUGUGUUGGCACCUAACACAGCCGC [gtspaired] | -0.315

Sequence | binding signal (log2 fold change)
UUUUUUUUUUGAGAUGGUUUCCAUUUCCGG [tttttgagapaired] | 0.275
UUUUUUUUUUGAGAUCGUAACGAUCUCCGG [tttttgagapaired] | 0.446
UUUUUUUUUUGAGACGGCUUCCGUCUCCGG [tttttgagapaired] | 0.421
GUGUGGUGUGUUGGAGCCUAACACAUCACA [gtspaired] | -0.17
UUUUUUUUUUGAGAUCGAAACGAUCUCCUA [tttttgagapaired] | 0.0395
UUUUUUUUUUGAGACCGGGACGGUCUUCUG [tttttgagapaired] | 0.737
UUUUUUUUUUGAGACUGUUCCAGUCUCCAG [tttttgagapaired] | 0.367
GUGUUGUGUGUUGGCUUCUAACACACAGCG [gtspaired] | -0.684
UUUUUUUUUUGAGAACGGAGCGUUCUUCUA [tttttgagapaired] | 0.0975
UUUUUUUUUUGAGACGGCAUCCGUCUCCUA [tttttgagapaired] | 0.569
UUUUUUUUUUGAGACUGCAACAGUUUCCUG [tttttgagapaired] | 0.689
UUUUUUUUUUGAGACGGUCCCCGUCUCCUG [tttttgagapaired] | 0.975
UUUUUUUUUUGAGAGGGUAUCCUUCUCCUA [tttttgagapaired] | 0.0439
UUUUUUUUUUGAGACUGGCGCAGUCUCCUA [tttttgagapaired] | 0.44
UUUUUUUUUUGAGAUGGAUCCCAUCUCCUG [tttttgagapaired] | 0.291
UUUUUUUUUUGAGACUGUGGCAGUCUCCGG [tttttgagapaired] | 0.419
UUUUUUUUUUGAGACUGAAGCAGUCUCCAG [tttttgagapaired] | 0.569
GUUGUGUGUGUUGGUACCUAACACACGCAG [gtspaired] | -0.594
UUUUUUUUUUGAGAUGGGACCCAUCUCCUG [tttttgagapaired] | 0.402
UUUUUUUUUUGAGACGGUAGCCGUCUCCGG [tttttgagapaired] | 0.611
UUUUUUUUUUGAGACGGGAACCGUUUCCUA [tttttgagapaired] | 0.321
UUUUUUUUUUGAGACUGGUUCAGUCUCCAG [tttttgagapaired] | 0.251
UUUUUUUUUUGAGAGCGGUCCGCUCUCCUG [tttttgagapaired] | 0.844
UUUUUUUUUUGAGACUGGAACAGUCUCCUA [tttttgagapaired] | -0.222
UUUUUUUUUUGAGAGGGUGCCCCUCUCCUG [tttttgagapaired] | 0.573
UUUUUUUUUUGAGAUGGCAACCAUUUCCAG [tttttgagapaired] | 0.449

Sequence | binding signal (log2 fold change)
UUUUUUUUUUGAGAUGGCAACCAUCUCCAG [tttttgagapaired] | 0.187
UUUUUUUUUUGAGAACGGGACGUUCUCCUA [tttttgagapaired] | -0.387
UUUUUUUUUUGAGAGCGUAGCGCUCUCCUG [tttttgagapaired] | 0.34
GUUGUGUGUGUUGGUACCUAACACACACGA [gtspaired] | -0.28
UUUUUUUUUUGAGAGGGUCUCCCUCUCCAG [tttttgagapaired] | 0.411
UUUUUUUUUUGAGACGGGAGCCGUUUCCAG [tttttgagapaired] | 0.608
UUUUUUUUUUGAGAUGGGGGCUAUCUCCUA [tttttgagapaired] | 0.784
GUGUGUGGUGUUGGACUCUAACACCACGCG [gtspaired] | -0.105
GUGUGGUGUGUUGGUACCUAACACAUCGCA [gtspaired] | -0.708
GUUGUGUGUGUUGGCGCCUAACACACACAG [gtspaired] | -0.401
UUUUUUUUUUGAGACGGGCACCGUCUCCUA [tttttgagapaired] | 0.243
GUGUGUGGUGUUGGUUCCUAACACCGCGCG [gtspaired] | -0.675
UUUUUUUUUUGAGAUGGAGACUAUCUUCUA [tttttgagapaired] | 0.122
UUUUUUUUUUGAGAACGAGACGUUCUCCAG [tttttgagapaired] | 0.101
UUUUUUUUUUGAGACGGAGACUGUCUUCUA [tttttgagapaired] | 0.879
UUUUUUUUUUGAGACUGAGGCAGUUUCCAG [tttttgagapaired] | 0.606
UUCCUUCUUCCUCCAGUGGAGGGAGAGGGA [ctspaired] | -0.511
UUUUUUUUUUGAGAAGGAUCCCUUCUCCGG [tttttgagapaired] | -0.0228
UUUUUUUUUUGAGACGGUGGCCGUCUUCUG [tttttgagapaired] | 0.981
UUCUUCCUUCCUCCGAGGGAGGAGGGGAGA [ctspaired] | -0.373
UUUUUUUUUUGAGAACGGAGCGUUCUCCGG [tttttgagapaired] | 0.279
UUUUUUUUUUGAGACGGGAUCCGUUUCCAG [tttttgagapaired] | 0.494
UUUUUUUUUUGAGAUCGUAACGAUUUCCAG [tttttgagapaired] | 0.16
GUGGUGUGUGUUGGCCUCUAACACAUACCG [gtspaired] | -0.754

— publication PMC5892938
